Experimental data published in the supplement of paper PMC4967469.
IC50 is the fitted dose that halves viability relative to control wells, and lower means more sensitive; where the fit passes the top or lowest dose, that dose stands as a limit. AUC, from the same fit, is the share of area under the viability curve across the 256-fold dose range; it is 1 without any effect and falls as sensitivity rises. For some assays here: A top dose marked as inferred comes from the curve model; the source does not state it.

What was measured:
Experiment in all cases: Viability of human cancer cell lines after 72 h of drug (GDSC screen)
ABT-263 = compound: CC1(C)CCC(c2ccc(Cl)cc2)=C(CN2CCN(c3ccc(C(=O)NS(=O)(=O)c4ccc(N[C@H](CCN5CCOCC5)CSc5ccccc5)c(S(=O)(=O)C(F)(F)F)c4)cc3)CC2)C1 [ABT-263]; details: top dose 2 µM; top dose inferred
Description: (§1)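 Human cancer cell lines in 384-well plates, medium with 10% serum, drug for 72 h over a 256-fold dose range (nine 2-fold or five 4-fold steps up to the top dose). Adherent lines were fixed and stained with the nucleic acid dye Syto60, suspension lines read with resazurin; signal relative to control wells, capped at 0 and 100%. One two-parameter sigmoid per drug and line, fitted in a mixed model over all curves with the slope shared within a line.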

GW 441756 = compound: Cn1cc(/C=C2\C(=O)Nc3cccnc32)c2ccccc21 [GW 441756]; details: top dose 2 µM; top dose inferred
Description: as §1

PIK-93 = compound: CC(=O)Nc1nc(C)c(-c2ccc(Cl)c(S(=O)(=O)NCCO)c2)s1 [PIK-93]; details: top dose 20 µM
Description: as §1

piperlongumine = compound: COc1cc(/C=C/C(=O)N2CCC=CC2=O)cc(OC)c1OC [piperlongumine]; details: top dose 10 µM
Description: as §1

Cell Line	AUC (ABT-263)	IC50 (ABT-263) [µM]	AUC (GW 441756)	IC50 (GW 441756) [µM]	AUC (PIK-93)	IC50 (PIK-93) [µM]	AUC (piperlongumine)	IC50 (piperlongumine) [µM]
Detroit562 (head and neck, adherent)	0.988	> 2	0.981	> 2	0.936	> 20	0.797	4.51
DoTc2-4510 (cervix, adherent)	0.872	1.74	0.962	> 2	0.948	> 20	0.8	4.56
EBC-1 (lung squamous cell carcinoma, adherent)	0.77	0.856	0.974	> 2	0.949	> 20	0.706	2.58
ECC10 (stomach, suspension)	0.546	0.168	0.979	> 2	0.912	> 20	0.762	3.73
EFM-192A (breast, adherent)	0.886	> 2	0.977	> 2	0.756	7.55	0.854	9.33
EFO-21 (ovary, adherent)	0.966	> 2	0.98	> 2	0.85	> 20	0.892	> 10
EFO-27 (ovary, adherent)	0.96	> 2	0.967	> 2	0.905	> 20	0.794	5.97
EGI-1 (biliary tract, adherent)	0.95	> 2	0.941	> 2	0.849	> 20	0.81	7.35
EMC-BAC-1 (lung adenocarcinoma, adherent)	0.843	1.72	0.968	> 2	0.68	4.3	0.82	6.83
EMC-BAC-2 (lung adenocarcinoma, adherent)	0.893	> 2	0.905	> 2	0.647	3.45	0.765	4.31
EN (endometrium, adherent)	0.96	> 2	0.919	> 2	0.851	> 20	0.945	> 10
ESO26 (oesophagus, adherent)	0.955	> 2	0.989	> 2	0.833	11.9	0.822	5.39
ESO51 (oesophagus, semi-adherent)	0.74	0.827	0.935	> 2	0.835	> 20	0.946	> 10
ESS-1 (endometrium, adherent)	0.892	1.94	0.99	> 2	0.989	> 20	0.79	3.98
EW-7 (Ewing sarcoma, semi-adherent)	0.682	0.375	0.99	> 2	0.271	0.308	0.809	4.45
FADU (head and neck, adherent)	0.948	> 2	0.869	1.74	0.968	> 20	0.698	2.19

Cell Line	AUC (ABT-263)	IC50 (ABT-263) [µM]	AUC (GW 441756)	IC50 (GW 441756) [µM]	AUC (PIK-93)	IC50 (PIK-93) [µM]	AUC (piperlongumine)	IC50 (piperlongumine) [µM]
FLO-1 (oesophagus, adherent)	0.875	> 2	0.861	> 2	0.681	5.08	0.802	7.74
FTC-133 (thyroid, adherent)	0.877	> 2	0.986	> 2	0.985	> 20	0.801	5.45
FU97 (stomach, adherent)	0.98	> 2	0.952	> 2	0.89	> 20	0.76	3.62
FU-OV-1 (ovary, adherent)	0.963	> 2	0.978	> 2	0.832	18.7	0.8	6.68
G-292 Clone A141B1 (osteosarcoma, adherent)	0.871	> 2	0.957	> 2	0.776	13.5	0.789	7.77
G-361 (melanoma, adherent)	0.988	> 2	0.895	> 2	0.741	5.89	0.804	4.74
G-401 (kidney, adherent)	0.983	> 2	0.984	> 2	0.733	6.21	0.741	3.31
G-402 (soft tissue, adherent)	0.923	> 2	0.942	> 2	0.816	16	0.687	2.52
GMS-10 (glioma, adherent)	0.971	> 2	0.986	> 2	0.941	> 20	0.694	2.18
H4 (glioma, adherent)	0.986	> 2	0.968	> 2	0.938	> 20	0.746	3.14
H513 (mesothelioma, semi-adherent)	0.979	> 2	0.953	> 2	0.929	> 20	0.811	6.8
H2369 (mesothelioma, adherent)	0.982	> 2	0.662	0.359	0.935	> 20	0.786	4.46
H2373 (mesothelioma, adherent)	0.983	> 2	0.875	> 2	0.847	> 20	0.777	5.12
H2461 (mesothelioma, adherent)	0.978	> 2	0.938	> 2	0.952	> 20	0.728	3.34
H2595 (mesothelioma, adherent)	0.88	> 2	0.94	> 2	0.969	> 20	0.84	> 10
